Assay results as given in PubChem BioAssay (NCI).
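In this assay, cells in 96-well plates receive the compound at five concentrations for 48 hours. Endpoints are linearly interpolated between the surrounding concentrations. Definition used: TGI = concentration required for complete inhibition of growth.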

What was measured:
Test in all cases: NCI tumour cell line growth inhibition, 48 h
[1] = test system: A498 renal
[2] = test system: HCT-15 colon
[3] = test system: SN12C renal
[4] = test system: MDA-N
[5] = test system: MALME-3M melanoma
[6] = test system: UO-31 renal
[7] = test system: MCF7 breast
[8] = test system: SR leukemia
[9] = test system: NCI-H460 lung
[10] = test system: 786-0 renal
[11] = test system: MDA-MB-231 breast
[12] = test system: SF-295 CNS
[13] = test system: OVCAR-5 ovarian
[14] = test system: SK-MEL-28 melanoma
[15] = test system: KM12 colon
[16] = test system: EKVX NSCLC
[17] = test system: RPMI-8226 leukemia
[18] = test system: TK-10 renal
[19] = test system: PC-3 prostate
[20] = test system: NCI-H522 lung
[21] = test system: U251 CNS
[22] = test system: MOLT-4 leukemia
[23] = test system: HT29 colon
[24] = test system: MDA-MB-435
[25] = test system: HCT-116 colon
[26] = test system: CCRF-CEM leukemia
[27] = test system: UACC-257 melanoma
[28] = test system: HOP-62 NSCLC
[29] = test system: SW-620 colon
[30] = test system: SNB-75 CNS
[31] = test system: OVCAR-8 ovarian
[32] = test system: HL-60(TB) leukemia
[33] = test system: HCC-2998 colon
[34] = test system: BT-549 breast
[35] = test system: NCI/ADR-RES ovarian
[36] = test system: NCI-H226 lung
[37] = test system: HS 578T breast
[38] = test system: SF-539 CNS
[39] = test system: ACHN renal
[40] = test system: K-562 leukemia
[41] = test system: OVCAR-3 ovarian
[42] = test system: OVCAR-4 ovarian
[43] = test system: LOX IMVI melanoma
[44] = test system: SNB-19 CNS
[45] = test system: CAKI-1 renal
[46] = test system: SF-268 CNS
[47] = test system: SK-MEL-5 melanoma
[48] = test system: COLO 205 colon
[49] = test system: IGROV1 ovarian
[50] = test system: RXF 393 renal
[51] = test system: DU-145 prostate
[52] = test system: HOP-92 NSCLC
[53] = test system: A549 NSCLC

Measured: TGI

Cc1ccc2[nH]c3c(c2c1)CC(=O)Nc1ccccc1-3
> 100 µM: [1] | [2] | [3] | [4] | [5] | [6] | [7] | [8] | [9] | [10] | [11] | [12] | [13] | [14] | [15] | [16] | [17] | [18] | [19] | [20] | [21] | [22] | [23] | [24] | [25] | [26] | [27] | [28] | [29] | [30] | [31] | [32] | [33] | [34] | [35] | [36] | [37] | [38] | [39] | [40] | [41] | [42] | [43] | [44] | [45] | [46] | [47] | [48] | [49] | [50] | [51] | [52] | [53]
